Results as given in article PMC9810599.
No constants are given. Whether binding was seen depends on the method and setting. In cells and extracts the contact can be indirect. Some binding calls cover weakened binding; strength is not graded here. For some of these results: Tags and fused reporters may be left off the sequences shown.

Protein sequences, listed by entry. Tags and fused reporters are not part of them. Lines headed by an entry give the natural chain unless they say otherwise; changes in a name come on top. Residues count along the entry.
UniProt P0CS90, residues 24-654: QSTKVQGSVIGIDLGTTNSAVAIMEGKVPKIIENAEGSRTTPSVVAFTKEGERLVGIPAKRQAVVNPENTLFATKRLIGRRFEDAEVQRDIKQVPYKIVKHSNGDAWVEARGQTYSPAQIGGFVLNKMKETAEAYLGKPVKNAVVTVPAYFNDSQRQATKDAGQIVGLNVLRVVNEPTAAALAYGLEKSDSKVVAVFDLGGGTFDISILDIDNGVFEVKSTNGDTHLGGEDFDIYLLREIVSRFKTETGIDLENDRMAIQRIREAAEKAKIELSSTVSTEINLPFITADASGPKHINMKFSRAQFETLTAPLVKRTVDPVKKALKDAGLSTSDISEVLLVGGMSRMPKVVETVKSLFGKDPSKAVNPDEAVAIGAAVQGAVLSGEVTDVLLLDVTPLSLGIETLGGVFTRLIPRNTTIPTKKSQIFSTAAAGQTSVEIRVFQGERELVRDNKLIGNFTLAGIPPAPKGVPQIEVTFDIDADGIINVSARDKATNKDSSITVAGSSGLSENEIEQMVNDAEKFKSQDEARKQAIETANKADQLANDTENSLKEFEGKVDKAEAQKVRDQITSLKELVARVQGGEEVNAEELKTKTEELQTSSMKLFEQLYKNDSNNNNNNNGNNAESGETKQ
UniProt P07251, residues 36-545: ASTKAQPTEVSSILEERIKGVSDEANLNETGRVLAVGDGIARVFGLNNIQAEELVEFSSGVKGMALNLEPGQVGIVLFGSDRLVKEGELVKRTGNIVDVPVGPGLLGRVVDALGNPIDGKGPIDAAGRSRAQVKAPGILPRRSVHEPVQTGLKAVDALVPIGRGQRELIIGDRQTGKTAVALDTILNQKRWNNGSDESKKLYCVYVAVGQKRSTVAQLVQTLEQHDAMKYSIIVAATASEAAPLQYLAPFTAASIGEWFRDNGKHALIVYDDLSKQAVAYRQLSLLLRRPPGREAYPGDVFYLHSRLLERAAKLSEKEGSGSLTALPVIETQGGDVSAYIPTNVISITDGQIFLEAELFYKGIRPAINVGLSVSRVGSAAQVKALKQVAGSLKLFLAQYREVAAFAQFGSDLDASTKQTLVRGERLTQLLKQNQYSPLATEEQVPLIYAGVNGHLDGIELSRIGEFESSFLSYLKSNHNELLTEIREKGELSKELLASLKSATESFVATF

T1: His-tagged Ina22 (Ina22His) (S. cerevisiae) (UniProt P40576)
T1 sequence: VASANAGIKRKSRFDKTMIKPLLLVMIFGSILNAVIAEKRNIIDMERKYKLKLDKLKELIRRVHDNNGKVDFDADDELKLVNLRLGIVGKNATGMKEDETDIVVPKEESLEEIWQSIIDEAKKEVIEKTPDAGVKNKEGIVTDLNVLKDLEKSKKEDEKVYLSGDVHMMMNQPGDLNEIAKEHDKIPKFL

T2: His-tagged Ina17 (Ina17His) (S. cerevisiae) (UniProt Q02888)
T2 sequence: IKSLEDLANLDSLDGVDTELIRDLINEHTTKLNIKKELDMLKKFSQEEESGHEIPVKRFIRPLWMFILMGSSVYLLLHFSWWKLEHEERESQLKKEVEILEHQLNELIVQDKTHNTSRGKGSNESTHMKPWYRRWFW

T3: Tim17His (His-tagged Tim17) (S. cerevisiae) (UniProt P39515)
T3 sequence: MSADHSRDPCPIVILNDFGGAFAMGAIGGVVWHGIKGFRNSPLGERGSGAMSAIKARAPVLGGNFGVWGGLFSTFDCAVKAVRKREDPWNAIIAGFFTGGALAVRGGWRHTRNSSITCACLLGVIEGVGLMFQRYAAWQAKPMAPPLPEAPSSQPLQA


Tests used:
[1] = molecular target: mitochondrial Hsp70 (mtHsp70), wild type (S. cerevisiae (endogenous in yeast mitochondria)) (UniProt P0CS90); assay: pull-down; mtHsp70 with its bound proteins captured on Mge1His-coated Ni-NTA agarose from digitonin lysates of mitochondria (wild type, ρ0, atp3∆, atp4∆, atp5∆, atp7∆, atp14∆, ina17∆, ina22∆, ssc1-62, cells overexpressing Atp5 or Atp5^G183A); SDS-PAGE and immunodetection
[2] = molecular target: His-tagged mitochondrial Hsp70 (mtHsp70His) (S. cerevisiae) (UniProt P0CS90); assay: pull-down; mtHsp70His purified on Ni-NTA agarose from digitonin-lysed ρ+ and ρ0 mitochondria, in the absence of ATP; SDS-PAGE and immunodetection
[3] = molecular target: T1, His-tagged Ina22 (Ina22His) (S. cerevisiae); assay: pull-down; Ina17His or Ina22His purified on Ni-NTA agarose from digitonin-lysed mitochondria; also with pre-incubation of the lysate with ATP and with elution of bound proteins by 20 mM ATP; SDS-PAGE and immunodetection
[4] = molecular target: T2, His-tagged Ina17 (Ina17His) (S. cerevisiae); assay: as above
[5] = molecular target: T3, Tim17His (His-tagged Tim17) (S. cerevisiae); assay: pull-down; mitochondria with the His-tagged bait lysed in 1% digitonin (20 mM Tris/HCl pH 7.4, 0.1 mM EDTA, 50 mM NaCl, 10% glycerol, 10 mM imidazole), bound to Ni-NTA agarose 1 h at 4 °C, washed with 40 mM imidazole, eluted with 250 mM imidazole; SDS-PAGE and immunodetection; WT mitochondria as control
[6] = molecular target: Atp1His (His-tagged Atp1) (S. cerevisiae) (UniProt P07251); assay: as above

Row | Binder | binding [1] | binding [2] | binding [3] | binding [4] | binding [5] | binding [6]
1 | Atp4 (subunit b of the ATP synthase) (protein, UniProt P05626 36-244) MSSTPEKQTDPKAKANSIINAIPGNNILTKTGVLGTSAAAVIYAISNELYVINDESILLLTFLGFTGLVAKYLAPAYKDFADARMKKVSDVLNASRNKHVEAVKDRIDSVSQLQNVAETTKVLFDVSKETVELESEAFELKQKVELAHEAKAVLDSWVRYEASLRQLEQRQLAKSVISRVQSELGNPKFQEKVLQQSISEIEQLLSKLK | – | – | binds | binds | – | –
2 | Atp5 (oligomycin sensitivity conferring protein, OSCP) (protein, UniProt P09457 18-212) ASKAAAPPPVRLFGVEGTYATALYQAAAKNSSIDAAFQSLQKVESTVKKNPKLGHLLLNPALSLKDRNSVIDAIVETHKNLDGYVVNLLKVLSENNRLGCFEKIASDFGVLNDAHNGLLKGTVTSAEPLDPKSFKRIEKALSASKLVGQGKSLKLENVVKPEIKGGLIVELGDKTVDLSISTKIQKLNKVLEDSI | binds | binds | binds | binds | no binding | –
3 | Atp5, mildly overexpressed from a galactose-inducible promoter (untagged) (protein, UniProt P09457 18-212) ASKAAAPPPVRLFGVEGTYATALYQAAAKNSSIDAAFQSLQKVESTVKKNPKLGHLLLNPALSLKDRNSVIDAIVETHKNLDGYVVNLLKVLSENNRLGCFEKIASDFGVLNDAHNGLLKGTVTSAEPLDPKSFKRIEKALSASKLVGQGKSLKLENVVKPEIKGGLIVELGDKTVDLSISTKIQKLNKVLEDSI | binds | – | – | – | – | –
4 | Atp5^G183A, mildly overexpressed from a galactose-inducible promoter (untagged) (protein, UniProt P09457 18-212) ASKAAAPPPVRLFGVEGTYATALYQAAAKNSSIDAAFQSLQKVESTVKKNPKLGHLLLNPALSLKDRNSVIDAIVETHKNLDGYVVNLLKVLSENNRLGCFEKIASDFGVLNDAHNGLLKGTVTSAEPLDPKSFKRIEKALSASKLVGQGKSLKLENVVKPEIKGALIVELGDKTVDLSISTKIQKLNKVLEDSI | binds | – | – | – | – | –

Continued, values first:

Row | binding [1] | binding [2] | binding [3] | binding [4] | binding [5] | binding [6] | Binder
5 | binds | binds | – | – | – | – | Pam18 (also termed Tim14) (protein, UniProt Q07914 1-168) MSSQSNTGNSIEAPQLPIPGQTNGSANVTVDGAGVNVGIQNGSQGQKTGMDLYFDQALNYMGEHPVITGFGAFLTLYFTAGAYKSISKGLNGGKSTTAFLKGGFDPKMNSKEALQILNLTENTLTKKKLKEVHRKIMLANHPDKGGSPFLATKINEAKDFLEKRGISK
6 | binds | binds | – | – | – | – | Atp11 (assembly factor) (protein, UniProt P32453 41-318) QKYRKKLLEEAQKQGFNSIEELKNHLKETIESKKREFNKIDPLKELEDYQQKTQMENNNSKHLMTKSRSPLDPSAPKVPFKTLDSFLDVGKLKDLSKQEVEFLWRARWAQKDNTLCAVIPVSVYDKMMANARNNPIFVLPLPRQVQSEDAKPNEEQGMELHYIQWQFVGPQTTHCMMTSLAEYKLHQEFARPHTTLQFHSDLVKDKGIVFMNGHVEPDTNVNVQDAQLLLLNVQRFYGAMGEETPVAKQRVQLLRDFSKASPGFTVEKLISLSQSMEN
7 | binds | binds | – | – | – | – | Atp12 (assembly factor) (protein, UniProt P22135 33-325) DNTIENNTPTETNRLSKTSQKFWEKVSLNRDVEKGKIALQLDGRTIKTPLGNGIIVDNAKSLLAYLLKLEWSSLSSLSIKTHSLPLTSLVARCIDLQMTNEPGCDPQLVAKIGGNSDVIKNQLLRYLDTDTLLVFSPMNEFEGRLRNAQNELYIPIIKGMEEFLRNFSSESNIRLQILDADIHGLRGNQQSDIVKNAAKKYMSSLSPWDLAILEKTVLTTKSFICGVLLLENKKDTANLIPALKTDMDNIVRAATLETIFQVEKWGEVEDTHDVDKRDIRRKIHTAAIAAFKQ
8 | – | – | – | – | binds | no binding | Tim23 (protein, UniProt P32897 1-222) MSWLFGDKTPTDDANAAVGGQDTTKPKELSLKQSLGFEPNINNIISGPGGMHVDTARLHPLAGLDKGVEYLDLEEEQLSSLEGSQGLIPSRGWTDDLCYGTGAVYLLGLGIGGFSGMMQGLQNIPPNSPGKLQLNTVLNHITKRGPFLGNNAGILALSYNIINSTIDALRGKHDTAGSIGAGALTGALFKSSKGLKPMGYSSAMVAAACAVWCSVKKRLLEK
9 | binds | binds | – | – | – | no binding | Tim17 (protein, UniProt P39515 1-158) MSADHSRDPCPIVILNDFGGAFAMGAIGGVVWHGIKGFRNSPLGERGSGAMSAIKARAPVLGGNFGVWGGLFSTFDCAVKAVRKREDPWNAIIAGFFTGGALAVRGGWRHTRNSSITCACLLGVIEGVGLMFQRYAAWQAKPMAPPLPEAPSSQPLQA
10 | binds | binds | – | – | – | – | Pam16 (also termed Tim16) (protein, UniProt P42949 1-149) MAHRAFIQVIITGTQVFGKAFAEAYRQAASQSVKQGATNASRRGTGKGEYGGITLDESCKILNIEESKGDLNMDKINNRFNYLFEVNDKEKGGSFYLQSKVYRAAERLKWELAQREKNAKAKAGDASTAKPPPNSTNSSGADNSASSNQ
